# Results as given in PubChem BioAssay (NCATS).
# Where “and” joins values, the source holds several entries; their conditions need not be identical. Equal values may be shown once. This list was built around the results that the source calls inconclusive (neither active nor inactive); the mix of calls is not that of the screen. For part of these data: A potency beside an inconclusive call is a rough fit, not a confirmed value. Where a structure was tested more than once in an assay, its records may differ in their call. Calls of active or inactive are those of the source. Unless noted, the call rests on the fitted dose curve; in most records, active means well fitted curve in the direction sought with a large enough effect; inconclusive means small, poorly fitted or top-dose-only effect, or another doubt; inactive means no such curve, though single readings can be large; an effect the other way counts as inactive or inconclusive.
# Tests used:
# [1] = Confirmatory qHTS for small molecule stabilizers of the endoplasmic reticulum resident proteome: Secreted ER Calcium Modulated Protein (SERCaMP) assay (AID 1508628); further: nearly all actives have a fitted effect of over 40% in size; further: potency means the concentration at half of the fitted maximal effect
# How it was run: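 SH-SY5Y cells stably expressing GLuc-SERCaMP, treated 16 h with compound (primary 1.53, 7.67, 38.3 uM; confirmation 11 concentrations, up to 76.6 uM), then 100 nM thapsigargin for 4 h. Secreted Gaussia luciferase in medium read by coelenterazine luminescence.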
# [2] = Cell Viability qHTS for small molecule stabilizers of the endoplasmic reticulum resident proteome (AID 1508629); details: cell viability counter-screen, 100 nM thapsigargin for final 4 h;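 further: potency means the concentration at half of the fitted maximal effect; compound exposure about 46 h in total before the viability read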
# [3] = Primary qHTS for small molecule stabilizers of the endoplasmic reticulum resident proteome: Secreted ER Calcium Modulated Protein (SERCaMP) assay (AID 1508630); details: SH-SY5Y GLuc-SERCaMP (Gaussia luciferase released on ER calcium loss) secretion, thapsigargin, luminescence; series mostly up to 38.4 µM; further: potency means the concentration at half of the fitted maximal effect
# How it was run: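 GLuc-SERCaMP-expressing SH-SY5Y cells, pretreated 16 h with compound, are challenged with thapsigargin to empty ER calcium stores; after 4 h, coelenterazine is added directly to the medium and luminescence is imaged.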
# [4] = Primary qHTS for inhibitors of nuclear receptor binding SET domain protein 2 (NSD2) in an isogenic RCH-ACV NSD2 p.E1099K mutant (9B) (AID 1645876); further: potency means the concentration at half of the fitted maximal effect; nearly all actives have a fitted effect of over 70% in size
# [5] = Primary qHTS for inhibitors of nuclear receptor binding SET domain protein 2 (NSD2) in an RCH-ACV wild type WT cells (2C) (AID 1645877); details: activity change, negative = cell killing: at 44.9 µM (top of the series) unless noted; further: potency means the concentration at half of the fitted maximal effect; nearly all actives have a fitted effect of over 70% in size
# [6] = biological target: Calcium and integrin-binding protein 1 (Homo sapiens) (UniProt Q99828); experiment: Primary qHTS for Identification of Calcium Integrin Binding Protein 1 (CIB1) Competitor (AID 1508620); further: potency means the concentration at half of the fitted maximal effect
# How it was run: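 CIB1-GST (1 uM final) and compound incubated 15 min at room temperature before adding FITC-alphaIIb peptide tracer (100 nM final). Competition for binding read by fluorescence polarization (ex 480, em 540) after another 15 min at room temperature.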
# [7] = biological target: Cytochrome P450 2C9 (Homo sapiens) (UniProt P11712); experiment: Cytochrome P450 family 2 subfamily C member 9 (CYP2C9) small molecule antagonists: luciferase biochemical (cell-free) qHTS assay (AID 1645842; active means well fitted curve in the direction sought with a large enough effect in the repeat runs; inconclusive means weak or mixed curves; inactive means no such curve, though single readings can be large; an effect the other way counts as inactive or inconclusive; further: potency means the concentration at half of the fitted maximal effect; nearly all actives have a fitted effect of over 55% in size)
# How it was run: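 Luminescence, after 20 min with luciferin detection reagent, reflected CYP2C9 turnover during a 1 h NADPH-driven reaction at 37C. Enzyme-substrate mix contained 0.4% bovine serum albumin and was preincubated with compound 10 min at room temperature.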
# [8] = biological target: Papain (Carica papaya) (UniProt P00784); experiment: Primary qHTS assay for inhibitors of the protease papain (AID 1645873);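 further: papain turnover of Z-FR-AMC read as the AMC fluorescence gain over 10 min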
# [9] = biological target: Rap guanine nucleotide exchange factor 3 (Homo sapiens) (UniProt O95398); experiment: Confirmatory qHTS for antagonist of cAMP-regulated guanine nucleotide exchange factor 3 (EPAC1) (AID 1645880); further: potency means the concentration at half of the fitted maximal effect; nearly all actives have a fitted effect of over 55% in size
# How it was run: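 Nucleotide exchange uses 100 nM EPAC1, 250 nM RAP1B-BODIPY-GDP and 50 uM GDP, with compounds in a concentration-titration series. After 5 min at room temperature, fluorescence (480 nm ex/540 nm em) is read every 5 min for 30 min. Data are normalized to control ATA and DMSO.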
# [10] = biological target: Rap guanine nucleotide exchange factor 4 (Homo sapiens) (UniProt Q8WZA2); experiment: Confirmatory qHTS for antagonist of cAMP-regulated guanine nucleotide exchange factor 4 (EPAC2) (AID 1645885); further: potency means the concentration at half of the fitted maximal effect; nearly all actives have a fitted effect of over 25% in size
# [11] = biological target: Rap guanine nucleotide exchange factor 3 (Homo sapiens) (UniProt O95398); experiment: Counterscreen qHTS for agonist of cAMP-regulated guanine nucleotide exchange factor 3 (EPAC1) (AID 1645889); further: nearly all actives have a fitted effect of over 40% in size
# How it was run: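 Rap1B-BODIPY-GDP 250 nM + GDP 50 uM; cpds 7-pt, final 9.74 nM–152 uM (activator mode) or from 7.32 nM upwards (inhibitor mode); RT; FI 480/540 nm at 5 and 30 min, then ± cAMP, reread.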
# Tags describe the fitted curve by direction and shape.
# Chain of UniProt O95398 (O95398 whole entry, looked up): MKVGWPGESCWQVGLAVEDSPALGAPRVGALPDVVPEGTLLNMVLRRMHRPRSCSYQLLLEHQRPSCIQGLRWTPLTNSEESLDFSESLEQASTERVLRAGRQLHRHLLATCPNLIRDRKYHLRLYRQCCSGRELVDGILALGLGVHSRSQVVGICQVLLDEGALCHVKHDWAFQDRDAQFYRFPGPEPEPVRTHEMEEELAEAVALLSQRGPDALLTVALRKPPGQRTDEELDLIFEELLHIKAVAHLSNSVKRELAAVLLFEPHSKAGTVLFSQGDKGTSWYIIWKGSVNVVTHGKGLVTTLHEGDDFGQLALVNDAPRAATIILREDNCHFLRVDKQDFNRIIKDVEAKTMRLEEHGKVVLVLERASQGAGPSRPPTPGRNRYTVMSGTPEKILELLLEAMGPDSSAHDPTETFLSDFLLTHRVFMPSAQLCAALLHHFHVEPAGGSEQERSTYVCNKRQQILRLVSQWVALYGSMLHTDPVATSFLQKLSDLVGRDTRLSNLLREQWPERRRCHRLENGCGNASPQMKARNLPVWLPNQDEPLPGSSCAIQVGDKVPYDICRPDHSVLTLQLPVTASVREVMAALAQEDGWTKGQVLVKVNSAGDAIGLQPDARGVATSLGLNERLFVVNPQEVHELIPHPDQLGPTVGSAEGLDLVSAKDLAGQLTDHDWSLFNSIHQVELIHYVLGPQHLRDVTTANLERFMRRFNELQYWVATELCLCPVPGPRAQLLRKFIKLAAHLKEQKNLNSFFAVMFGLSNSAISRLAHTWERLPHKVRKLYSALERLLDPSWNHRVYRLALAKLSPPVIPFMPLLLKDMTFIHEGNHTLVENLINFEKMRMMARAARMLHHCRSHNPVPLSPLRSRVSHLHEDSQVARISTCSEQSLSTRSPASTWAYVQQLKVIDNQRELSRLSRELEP
# Chain of UniProt Q99828 (Q99828 whole entry, looked up): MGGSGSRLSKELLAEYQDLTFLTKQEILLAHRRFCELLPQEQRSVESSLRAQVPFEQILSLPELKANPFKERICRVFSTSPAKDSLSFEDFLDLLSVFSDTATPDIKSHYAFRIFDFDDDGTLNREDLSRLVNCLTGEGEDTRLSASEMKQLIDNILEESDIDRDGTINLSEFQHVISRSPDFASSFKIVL
# Chain of UniProt P11712 (P11712 whole entry, looked up): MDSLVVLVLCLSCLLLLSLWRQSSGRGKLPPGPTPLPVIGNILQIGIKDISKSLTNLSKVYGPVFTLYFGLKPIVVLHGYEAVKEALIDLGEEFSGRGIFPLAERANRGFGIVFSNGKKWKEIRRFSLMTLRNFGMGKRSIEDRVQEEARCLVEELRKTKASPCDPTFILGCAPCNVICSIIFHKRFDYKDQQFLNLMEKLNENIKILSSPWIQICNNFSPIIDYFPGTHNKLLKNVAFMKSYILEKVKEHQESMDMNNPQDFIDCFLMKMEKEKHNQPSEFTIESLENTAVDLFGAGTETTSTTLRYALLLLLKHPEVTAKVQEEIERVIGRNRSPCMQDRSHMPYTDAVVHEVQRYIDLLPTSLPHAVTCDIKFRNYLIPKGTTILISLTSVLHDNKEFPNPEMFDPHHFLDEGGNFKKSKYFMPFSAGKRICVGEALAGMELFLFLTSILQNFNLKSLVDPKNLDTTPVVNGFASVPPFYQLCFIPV
# Chain of UniProt P00784 (P00784 whole entry, looked up): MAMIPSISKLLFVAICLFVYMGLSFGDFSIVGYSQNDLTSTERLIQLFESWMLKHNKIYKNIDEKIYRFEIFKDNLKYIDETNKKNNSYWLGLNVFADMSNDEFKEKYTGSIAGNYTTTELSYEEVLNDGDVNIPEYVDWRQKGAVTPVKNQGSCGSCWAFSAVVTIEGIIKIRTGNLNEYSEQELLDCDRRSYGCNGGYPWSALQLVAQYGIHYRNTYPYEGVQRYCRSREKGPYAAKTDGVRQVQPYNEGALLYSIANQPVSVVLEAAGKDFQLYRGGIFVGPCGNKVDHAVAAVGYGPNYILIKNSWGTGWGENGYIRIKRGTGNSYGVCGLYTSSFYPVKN
# Chain of UniProt Q8WZA2 (Q8WZA2 whole entry, looked up): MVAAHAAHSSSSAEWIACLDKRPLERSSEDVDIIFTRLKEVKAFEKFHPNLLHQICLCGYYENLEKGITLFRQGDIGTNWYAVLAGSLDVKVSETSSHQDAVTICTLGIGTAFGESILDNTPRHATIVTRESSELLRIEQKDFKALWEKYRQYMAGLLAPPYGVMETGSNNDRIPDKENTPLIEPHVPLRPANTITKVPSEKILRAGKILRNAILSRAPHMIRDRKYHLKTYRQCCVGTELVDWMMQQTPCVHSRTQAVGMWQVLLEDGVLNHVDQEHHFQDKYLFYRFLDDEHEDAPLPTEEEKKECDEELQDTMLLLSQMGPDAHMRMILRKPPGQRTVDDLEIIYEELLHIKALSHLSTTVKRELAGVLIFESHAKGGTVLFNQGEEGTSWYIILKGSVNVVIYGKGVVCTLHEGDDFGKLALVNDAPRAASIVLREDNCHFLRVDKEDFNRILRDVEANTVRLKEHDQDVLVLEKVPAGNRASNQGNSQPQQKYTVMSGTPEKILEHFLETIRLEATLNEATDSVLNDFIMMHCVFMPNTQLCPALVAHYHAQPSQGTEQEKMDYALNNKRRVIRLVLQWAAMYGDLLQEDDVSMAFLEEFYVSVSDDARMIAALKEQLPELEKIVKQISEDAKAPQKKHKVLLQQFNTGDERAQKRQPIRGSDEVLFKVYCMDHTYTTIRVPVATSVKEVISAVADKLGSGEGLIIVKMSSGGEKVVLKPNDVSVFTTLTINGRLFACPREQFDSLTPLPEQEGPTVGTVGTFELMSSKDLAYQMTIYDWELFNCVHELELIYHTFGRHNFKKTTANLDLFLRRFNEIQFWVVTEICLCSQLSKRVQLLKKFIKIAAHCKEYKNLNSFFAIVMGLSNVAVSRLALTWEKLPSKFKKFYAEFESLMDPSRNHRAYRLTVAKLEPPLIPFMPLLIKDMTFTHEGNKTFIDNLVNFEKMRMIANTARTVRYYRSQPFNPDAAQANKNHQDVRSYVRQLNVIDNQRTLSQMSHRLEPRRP
smiles,measurement,setting,value
CC(C(O)c1ccc(O)cc1)N1CCC(Cc2ccccc2)CC1 (centres undefined),Potency,[1],"inconclusive: 39.8 µM [inhibitor, partial curve]"
same,Potency,[2],"inconclusive: 0.178 µM [rising, full curve]"
same,Potency,[3],"inconclusive: 11.2 µM [inhibitor, partial curve, poor fit]"
same,Potency,[4],"inconclusive: 21.1 µM [inhibitor, single point] and inconclusive: 7.96 µM [inhibitor, single point]"
same,Potency,[5],"inconclusive: 23.7 µM [inhibitor, single point] and inconclusive: 8.93 µM [inhibitor, single point]"
CC[C@H](C)[C@H]1O[C@]2(CC[C@@H]1C)C[C@@H]1C[C@@H](C/C=C(\C)[C@@H](O[C@H]3C[C@H](OC)[C@@H](O[C@H]4C[C@H](OC)[C@@H](O)[C@H](C)O4)[C@H](C)O3)[C@@H](C)/C=C/C=C3\CO[C@@H]4[C@H](O)C(C)=C[C@@H](C(=O)O1)[C@]34O)O2,Potency,[6],inactive
same,Potency,[5],active: 9.16 µM
CN1CCN(CCCN2c3ccccc3Sc3ccc(S(=O)(=O)N(C)C)cc32)CC1,Potency,[1],"inconclusive: 10 µM [inhibitor, full curve, poor fit]"
same,Potency,[3],"inconclusive: 6.31 µM [inhibitor, partial curve, poor fit]"
same,Potency,[7],"inconclusive: 19.5 µM [inhibitor, single point]"
same,Potency,[4],"inconclusive: 29.9 µM [inhibitor, single point]"
O=C(c1ccc(OCCN2CCCCC2)cc1)c1c(-c2ccc(O)cc2)sc2cc(O)ccc12,Potency,[1],"inconclusive: 22.4 µM [inhibitor, partial curve] and inactive"
same,Potency,[8],inactive
CN(C)C(=S)SC(=S)N(C)C,Potency,[2],"inconclusive: 3.98 µM [cytotoxic, full curve]"
same,Potency,[3],"inconclusive: 10 µM [inhibitor, partial curve, poor fit]"
same,Potency,[7],"inconclusive: 19.5 µM [inhibitor, single point]"
Oc1c(Cl)cc(Cl)c2cccnc12,Potency,[1],"inconclusive: 22.4 µM [inhibitor, partial curve]"
same,Potency,[2],active: 20 µM
same,Potency,[3],"inconclusive: 31.6 µM [inhibitor, partial curve, poor fit] and inactive"
same,Potency,[4],active: 3.76 µM
Oc1ccc(Cl)cc1Sc1cc(Cl)ccc1O,Potency,[6],"inconclusive: 50.1 µM [inhibitor, partial curve, poor fit]"
same,Potency,[9],"inconclusive: 49.8 µM [inhibitor, partial curve] and inconclusive: 56.2 µM [inhibitor, partial curve]"
same,Potency,[10],active: 31.2 µM
same,Potency,[11],inactive
